Reference: PubChem BioAssay AID1030 (National Center for Advancing Translational Sciences (NCATS), 2008)
Hit rate of the full screen: of about 220,000 compounds, about 16,000 (7.3%) were called active. The shares of active, inactive and inconclusive entries below differ from those in the screen. Calls come from the whole dose curve; as a rule, active = well fitted inhibition curve with a large enough effect (not every such curve was filed as active); inconclusive = small, poorly fitted or top-dose-only effect, or another doubt; inactive = no such curve, though single readings can be large or run the other way. Potencies beside an inconclusive call are fits to weak or partial responses and may not hold up.

These compounds were tested against Aldehyde dehydrogenase 1A1 (Homo sapiens) (UniProt P00352) (assay: qHTS Assay for Inhibitors of Aldehyde Dehydrogenase 1 (ALDH1A1)). Settings: Purified ALDH1A1, NADH fluorescence, propionaldehyde substrate; series mostly up to 75.3 µM; activity, negative = inhibition: at the top concentration.
Potency is the fitted concentration of half-maximal effect; tags give direction and shape of the fitted curve.
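Throughout, for activity, negative = inhibition: plate controls were no enzyme wells and a reference inhibitor.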

Chain of UniProt P00352 (P00352 whole entry, looked up): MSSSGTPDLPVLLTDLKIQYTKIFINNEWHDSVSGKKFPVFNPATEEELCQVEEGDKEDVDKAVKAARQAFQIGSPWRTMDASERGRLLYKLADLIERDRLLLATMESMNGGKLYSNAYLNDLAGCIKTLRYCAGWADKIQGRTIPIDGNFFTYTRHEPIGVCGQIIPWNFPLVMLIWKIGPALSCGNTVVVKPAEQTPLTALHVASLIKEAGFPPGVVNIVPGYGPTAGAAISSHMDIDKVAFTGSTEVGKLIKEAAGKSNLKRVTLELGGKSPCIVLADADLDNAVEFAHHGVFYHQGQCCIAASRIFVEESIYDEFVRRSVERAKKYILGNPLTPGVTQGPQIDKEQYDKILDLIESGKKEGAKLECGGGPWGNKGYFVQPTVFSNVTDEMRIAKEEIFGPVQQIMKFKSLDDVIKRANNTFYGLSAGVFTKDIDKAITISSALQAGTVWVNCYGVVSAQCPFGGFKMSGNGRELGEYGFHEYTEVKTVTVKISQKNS

Potency, inconclusive:
CCOC(=O)CNc1c(-c2ccc(O)cc2)nc2ccccn12 28.2 µM [inhibitor, partial curve]
CCN1C/C(=C/c2cccc([N+](=O)[O-])c2)C(=O)/C(=C/c2cccc([N+](=O)[O-])c2)C1 20 µM [inhibitor, partial curve]
Cc1nc2ccc(NC(=O)c3ccc(Cl)c(S(=O)(=O)N(C)c4ccccc4)c3)cc2s1 39.8 µM [inhibitor, single point]
Cc1cccc2cc3c(NC(=O)CC(C)C)nn(C)c3nc12 8.91 µM [inhibitor, single point]
COc1ccc(CC(=O)N2CCN=C2SCc2ccc([N+](=O)[O-])cc2)cc1 39.8 µM [inhibitor, single point]
Cc1ccc(C2=CC(c3ccc(N(C)C)cc3)n3nnnc3N2)cc1 (centres undefined) 25.1 µM [inhibitor, partial curve]
O=c1c2c(-c3ccc([N+](=O)[O-])cc3)csc2nc2n1CCCCC2 35.5 µM [inhibitor, single point]
O=Cc1ccc(-n2cccn2)cc1 31.6 µM [inhibitor, single point]
Cn1c(-c2ccc(F)cc2)cnc1NCc1ccc(F)cc1 3.55 µM [inhibitor, partial curve]
O=C(OCC(=O)N1CCCCCC1)c1ccc([N+](=O)[O-])cc1Cl 39.8 µM [inhibitor, single point]
O=S(=O)(Nc1ccc(S(=O)(=O)Nc2ccccc2)cc1)c1ccccc1 39.8 µM [inhibitor, single point]
COc1ccc2oc(=O)cc(C)c2c1 31.6 µM [inhibitor, single point]
O=C(O)CCC(=O)Nc1nc2nc(-c3ccccc3)cc(-c3ccccc3)n2n1 28.2 µM [inhibitor, partial curve]
Cc1ccc(C)c(NC(=S)N/N=C2/CCCCc3ccccc32)c1 22.4 µM [inhibitor, partial curve]
CCCc1cc2c(-c3ccccc3)cc(=O)oc2cc1OCc1ccc(C(=O)O)o1 10 µM [inhibitor, partial curve]
COC(=O)c1cc(OC)c(OC)cc1NC(=O)c1cc(OC)cc(OC)c1 31.6 µM [inhibitor, partial curve]
COc1cccc(C(c2sc3nc(C)nn3c2O)N2CCc3ccccc3C2)c1 (centres undefined) 23.8 µM [inhibitor, single point]
O=C1CC(c2ccco2)CC(O)=C1C=Nc1cc(Cl)cc(Cl)c1 (centres undefined) 28.2 µM [inhibitor, single point]
Cc1cc(=O)[nH]c2c3ccccc3nn12 35.5 µM [inhibitor, single point]
CSc1ccccc1NC(=O)c1cc(C2CC2)on1 22.4 µM [inhibitor, single point]
c1ccc(C2=NN[C@@H]3c4ccccc4-c4ccccc4N3C2)cc1 5.62 µM [inhibitor, partial curve]
O=C(Nc1c(C(=O)N2CCOCC2)cnn1-c1ccccc1)c1ccccc1 39.8 µM [inhibitor, single point]

Potency, active:
COc1ccc2c(Cl)c(C(=O)N/N=C3\CCCC(=O)C3)sc2c1 4.47 µM
Cc1cnc(CNc2nc(-c3ccccc3Cl)nc3ccccc23)cn1 14.1 µM
O=C(NCc1nnc(SCC(=O)N2CCCc3ccccc32)o1)c1ccccc1F 28.2 µM
CC1(C#CC[N+]2(C)CCCCC2)CCC2C(O1)c1ccccc1OC2(C)C (centres undefined) 31.6 µM
CN1CCN(Cc2nc3c(c(=O)n(C)c(=O)n3C)n2CCCc2ccccc2)CC1 5.62 µM
COC(=O)CN1C(=O)C(O)(CC(=O)c2ccc(C)cc2)c2cc(Br)ccc21 (centres undefined) 20 µM
O=C(Nc1ccc(CN2CCOCC2)cc1)c1ccc(-c2ccc(Cl)cc2Cl)o1 10 µM
Cc1ccc(C(=O)CC2(O)C(=O)N(CN3CCOCC3)c3ccccc32)cc1 (centres undefined) 14.1 µM

Potency, inactive:
CCCCC/C=C\C/C=C\CCCCCCCCCC(=O)O

activity, negative = inhibition, inactive:
CN1CCN(CN2C(=O)C3C4C=CC(C3C2=O)C2C3C(=O)N(CN5CCN(C)CC5)C(=O)C3C42)CC1 (centres undefined) -11.8% [at 13.5 µM]
COc1ccc(N2CCN(C(=O)[C@H](Cc3c[nH]c4ccccc34)NC(C)=O)CC2)cc1 -1.87%
Cc1ccc2nc(-c3ccncc3)cc(C(=O)Nc3ccc4c(c3)OCCO4)c2c1 -5.9%
Cc1nc(-c2ccc(C(=O)O)cc2)cs1 4.81%
Cc1nn(-c2cccc([N+](=O)[O-])c2)c(N)c1-c1ccccc1 -10.6%
c1ccc(-c2nnc(OCC3CCCO3)c3ccccc23)cc1 (centres undefined) -9.46%
COc1ccc(CCNC(=O)COc2ccc(S(=O)(=O)NC3CCCCC3)cc2Cl)cc1 6.29%
Cc1ccc(-c2noc(CCC(=O)N3CCCC3)n2)cc1 0.0654%
CC(C)Oc1cc(O)c2c(c1)OCC=C2CCC(=O)O -1.8% [at 13.5 µM]
O=C(c1ccccc1)c1cccn1CC(=O)N1CCc2ccccc2C1 6.04%
COc1ccc(C2(CNC(=O)c3ccccc3[N+](=O)[O-])CCOCC2)cc1 -6.09%
CC1CCN(S(=O)(=O)c2cccc(C(=O)N(Cc3ccccc3)c3ccccn3)c2)CC1 -11.6%
COC(=O)C12CC3(CCC4C5C(C(OCc6ccccc6)C41)C52)OCCO3 (centres undefined) 11% [at 13.5 µM]
O=C(O)CCn1cc(/C=N/O)c(-c2cccc([N+](=O)[O-])c2)n1 0.334%
CCOc1cc(C(=S)N2CCOCC2)ccc1OS(=O)(=O)c1ccccc1[N+](=O)[O-] -0.878%
O=C(O)c1cccc(N2C(=O)c3cccnc3C2=O)c1 0.41%
Cc1ccccc1NC(=O)CSc1nc(N)c2c3c(sc2n1)CSC(C)(C)C3 -8.5%
CC(=O)c1ccc(NC(=S)NCCCN2CCOCC2)cc1 -10.1%
